Laboratory results from PubChem BioAssay AID686978 (National Center for Advancing Translational Sciences (NCATS), 2013).
“And” between values parts separate entries of the source, which are not always exact repeats. Equal entries are not always repeated. The whole screen tested about 420,000 compounds, of which about 64,000 (15%) were called active. The inconclusive results got no clear call from the source; some entries with a clear call stand among them for comparison. Calls come from the whole dose curve; as a rule, active = well fitted inhibition curve with a large enough effect; inconclusive = small, poorly fitted or top-dose-only effect; inactive = flat fitted curve, though single readings scatter. Potencies of inconclusive entries are left out as doubtful fits.

Assay: qHTS for Inhibitors of human tyrosyl-DNA phosphodiesterase 1 (TDP1): qHTS in cells in absence of CPT; note: nearly all actives have a fitted effect of over 55% in size
Conditions: DT40 Tdp1-/- hTDP1 cells, no CPT, ATP luminescence, 48 h; activity change, negative = growth inhibition: at 46.2 µM (top of the series) unless noted
Outline: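 No-CPT arm: Tdp1-/-;hTDP1 DT40 cells (400/well) plus compounds, incubated ≥48 hr at 37 °C. Readout CellTiter-Glo luminescence.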
% is set by controls: 0 for no effect and ±100 for the full control effect; potency is the fitted concentration of half-maximal effect; tags give direction and shape of the fitted curve.

| SMILES | Potency | activity change, negative = growth inhibition |
| --- | --- | --- |
| Cc1ccc(C)c(N2CCN(C(c3ccccc3)c3nnc(-c4ccccc4)o3)CC2)c1 (configuration not stated) | active: 23.1 µM |  |
| c1nc(N2CCOCC2)c2cc(-c3ccoc3)ccc2n1 | inconclusive [inhibitor, partial curve, poor fit] |  |
| COCCN(C(=O)CSCc1ccc(C)cc1)c1c(N)n(CC(C)C)c(=O)[nH]c1=O |  | inactive: 20.3% |
| CCN(CC)CCCNC(=O)c1cc(Nc2ccc(OC)cc2OC)nc2ccccc12 | inconclusive [inhibitor, partial curve, poor fit] |  |
| CCCn1c2ccccc2c2cnn(CC(=O)NCCCOC(C)C)c(=O)c21 | inconclusive [inhibitor, single point] |  |
| COc1cc(NC(=O)c2cccc(COCC(F)(F)C(F)F)c2)cc(OC)c1OC | inconclusive [inhibitor, partial curve, poor fit] |  |
| O=C(/C=C/c1cn(-c2ccccc2)nc1-c1cccnc1)NCCN1CCOCC1 | inconclusive [inhibitor, single point] |  |
| CC(=O)c1ccc(NC(=S)NCc2ccco2)cc1 |  | inactive: 2.28% |
| Cc1ccccc1Cn1c(C)nc2ccccc21 | active: 5.8 µM |  |
| O=C(O)C1CCCCC1C(=O)Nc1ccccc1F (configuration not stated) |  | inactive: -3.64% |
| COc1ccc(-n2cc(-c3ccccc3)c3c(N4CCOCC4)ncnc32)cc1 | active: 18.4 µM |  |
| CC[N+](CC)(CC)CCOc1ccc(/C=C/c2ccccc2)cc1 | active: 4.22 µM and active: 2.59 µM |  |
| CCN1CCc2c(sc(-n3cccc3)c2C(CCC(C)C)NC(=O)NCCC(=O)OC)C1 (configuration not stated) | active: 25.9 µM |  |
| CCOC(=O)CNc1nc(Cl)nc(Nc2ccc(C)cc2)n1 | inconclusive [inhibitor, single point] |  |
| CC1CN(Cc2cc(=O)oc3cc(O)c(Cl)cc23)CC(C)O1 (configuration not stated) | inconclusive [inhibitor, full curve, poor fit] |  |
| COc1ccc(CN2CC(=O)N(c3ccccc3OC)C2=S)cc1OC |  | inactive: -15.7% |
| O=C(N/N=C/c1cc(Br)cs1)C(O)c1ccccc1 (configuration not stated) |  | inactive: -22.6% |
| CCn1nnc(-c2ccccc2NS(=O)(=O)c2ccc(C(=O)OC)cc2)n1 | inconclusive [inhibitor, single point] |  |
| O=C(Cc1ccc(F)cc1)NC1CCCC1 |  | inactive: -18.7% |
| CCN(CC(=O)Nc1ccc(OC)cc1)C(=O)c1ccc(N2C(=O)CCC2=O)cc1 |  | inactive: 3.32% |
| COc1ccc(NC(=O)CN(C2CCCCC2)S(C)(=O)=O)cc1OC |  | inactive: -5.42% |
| Cc1ccc(S(=O)(=O)NN=Cc2cc(Cl)ccc2O)cc1 |  | inactive: -29.9% |
| COc1ccc(CN(Cc2ccco2)S(=O)(=O)c2ccc(S(=O)(=O)N3CCCC3)cc2)cc1 | inconclusive [inhibitor, partial curve] |  |
| COc1cc(NC(=O)CSC(=S)N2CCCC2)c(OC)cc1Cl | active: 14.6 µM |  |
| O=C(CSc1nc2ccsc2c(=O)n1-c1ccc(Br)cc1)NCc1ccc(Cl)cc1 | inconclusive [inhibitor, partial curve, poor fit] |  |
| Nn1c(CSc2ccccn2)nc2ccccc2c1=O | inconclusive [inhibitor, single point] |  |

| SMILES | Potency | activity change, negative = growth inhibition |
| --- | --- | --- |
| CCN(CC)CCC(C)OC(=O)c1ccc(O)cc1O (configuration not stated) |  | inactive: 2.13% |
| COc1cccc(CNC(=O)c2ccc(NC(=O)CC3SC(N4CCCC4)=NC3=O)cc2)c1 (configuration not stated) |  | inactive: -2.25% |
| CCNC(=S)NNc1nc(N2CCCCC2)nc(N2CCOCC2)n1 |  | inactive: 0.599% |
| O=C(CSc1nnc(C2COc3ccccc3O2)o1)NC1CCCCC1 (configuration not stated) |  | inactive: 1.38% |
| COc1cc(=O)n2c(c1C(=O)NC(C)c1ccco1)CCN(CC=C(C)C)CC2 (configuration not stated) |  | inactive: -5.29% |
| CC(=O)Nc1sc2c(c1-c1nc3ccccc3s1)CCN(C(C)C)C2 | active: 2.59 µM |  |
| CCC(=O)N(CCc1ccccc1C)Cc1cc2cc3c(cc2[nH]c1=O)OCO3 | inconclusive [inhibitor, partial curve, poor fit] |  |
| COc1ccc(CCNC(=O)Cc2ccc(NC(=O)N3CCSc4ncccc43)cc2)cc1OC | inconclusive [inhibitor, single point] |  |
| Cc1ccc2c(c1)/C(=C/c1ccco1)C(=O)N2 | inconclusive [inhibitor, single point] |  |
| N#CCCN1CCN(C2=NC(=O)/C(=C\c3cccs3)S2)CC1 |  | inactive: -3.44% |
| CCCc1cc(=O)[nH]c(SCC(=O)Nc2ccc(OC)c(S(=O)(=O)N3CCCCC3)c2)n1 |  | inactive: -22.4% |
| COc1cccc(-c2nc(CS(=O)(=O)CC(=O)Nc3ccc(C)c(Cl)c3)c(C)o2)c1 |  | inactive: -15.3% |
| CCOc1ccc(CCNc2nc3ccccc3n3cnnc23)cc1OCC | active: 18.4 µM |  |
| CC1Cc2ccccc2N1C(=O)Cn1c(=O)oc2cc(S(=O)(=O)NC3CCCC3)ccc21 (configuration not stated) | inconclusive [inhibitor, single point] |  |
| Cc1ccc(N(CN2C(=O)C3CC=CCC3C2=O)C(=O)c2ccco2)cc1Cl (configuration not stated) |  | inactive: -11.9% |
| Cc1c(NC(=O)COC(=O)c2c3c(nc4ccccc24)CCCC3)c(=O)n(-c2ccccc2)n1C | inconclusive [inhibitor, single point] |  |
| COc1ccccc1OCc1nc2ccccc2s1 | inconclusive [inhibitor, single point] |  |
| O=[N+]([O-])c1cc(/C=N/N/C(=N/c2ccccn2)c2ccccn2)ccc1O | active: 4.61 µM |  |
| CN(Cc1ccc(-n2cccn2)cc1)C(=O)c1cnn2c1NC(c1ccco1)CC2C(F)(F)F (configuration not stated) | active: 16.4 µM |  |
| CC(=O)c1ccc(N(C(=O)c2ccco2)C(C(=O)NC2CCCC2)c2cccs2)cc1 (configuration not stated) | inconclusive [inhibitor, single point] |  |
| CCOC(=O)C1Nc2ccc(C(=O)O)cc2C2C=CCC12 (configuration not stated) | inconclusive [inhibitor, single point] |  |
| CCc1ccc2oc(-c3ccc(NC(C)=O)cc3)nc2c1 |  | inactive: -23.6% |
| CC(=O)NC(Cc1ccc(F)cc1)C(=O)NC1CCN(C(=O)NCc2ccccc2)CC1 (configuration not stated) |  | inactive: 2.19% |
| CCCNc1nc(Cl)nc(NCc2cccnc2)n1 | inconclusive [inhibitor, single point] |  |
| COc1cccc(CNC(=O)Cn2cccc2C(=O)c2ccccc2)c1 |  | inactive: -11.4% |
| Cc1cc(=O)[nH]c(SCC(=O)Nc2ccc(Br)cc2)n1 | inconclusive [inhibitor, single point] |  |

| SMILES | Potency | activity change, negative = growth inhibition |
| --- | --- | --- |
| Cc1ccc(N2C(=O)CC3(CC4C=CC3C4)C2=O)cc1 (configuration not stated) |  | inactive: -7.11% |
| Cc1cc(N2CCN(C)CC2)nc2ccc(NC(=S)NCCCN3CCN(C)CC3)cc12 | inconclusive [inhibitor, single point] |  |
| COC(=O)c1ccc(CN2CCCC(CNC(=O)Cc3ccc(OC)cc3)C2)cc1 (configuration not stated) |  | inactive: 10.4% |
| O=C(Cn1c(=O)n(Cc2ccc(F)cc2)c(=O)c2sc3ccccc3c21)Nc1ccc(F)cc1F | inconclusive [inhibitor, single point] |  |
| Nc1nc(CSc2n[nH]c(-c3ccccc3)n2)nc(Nc2ccccc2)n1 | inconclusive [inhibitor, single point] |  |
| O=S(=O)(Nc1ccc(N2CCCCC2)cc1)c1cccs1 | inconclusive [inhibitor, single point] |  |
| O=C(NCc1ccccc1)C1Nc2ccc(OC(F)(F)F)cc2C2C=CCC12 (configuration not stated) | inconclusive [inhibitor, single point] |  |
| C=Cc1cc2c(cc1O)CCC1C2CCC2(C)C(O)CCC12 (configuration not stated) | active: 16.4 µM |  |
| COc1ccc(/C(O)=C2/C(=O)C(=O)N(CCCN3CCOCC3)C2c2ccc(C(C)C)cc2)cc1 (configuration not stated) |  | inactive: 3.9% |
| COc1ccc(CN2C(=O)N(c3ccc(OC)cc3)C(=O)C2CC(=O)Nc2ccccc2)cc1 (configuration not stated) | inconclusive [inhibitor, partial curve, poor fit] |  |
| O=C(COc1ccccc1)Nc1nc2ccccc2[nH]1 | active: 16.4 µM |  |
| COc1ccc(-c2nc(-c3cccs3)c(-c3cccs3)[nH]2)cc1O | active: 13 µM |  |
| COc1ccc(S(=O)(=O)N(Cc2ccccc2)c2ccccc2C(=O)O)cc1 |  | inactive: -0.25% |
| COc1ccc(Cl)cc1C(=O)NCC(c1ccco1)N(C)C (configuration not stated) | inconclusive [inhibitor, partial curve] |  |
| CCOC(=O)C1C(=O)C=C(c2ccc(OC)cc2)CC1c1ccco1 (configuration not stated) | inconclusive [inhibitor, single point] |  |
| Cc1c(NS(=O)(=O)c2ccc3c(c2)OCCO3)cccc1-c1nc2cccnc2s1 | active: 11.6 µM |  |
| COc1ccc(NC(=O)c2cc(C)nc3ccccc23)cc1S(=O)(=O)N1CCOCC1 |  | inactive: 2.97% |
| CCC(=O)NNC(=O)Cc1c(C)n(C(=O)c2ccc(Cl)cc2)c2ccc(OC)cc12 |  | inactive: -19.6% |
| CC(=O)c1c(N2CCCCC2)nc(=S)n(Cc2ccccc2)c1C | inconclusive [inhibitor, single point] |  |
| Cc1nc2ccc(-c3nc4ccc(N)cc4[nH]3)cc2[nH]1 | active: 4.11 µM |  |
| N#C/C(C(=O)NCc1ccco1)=C1/SC(Cc2ccc(Cl)cc2)C(=O)N1c1ccccc1 (configuration not stated) | inconclusive [inhibitor, full curve, poor fit] |  |
| c1csc(C2=Nn3c(nnc3-c3ccncc3)SC2)c1 | active: 14.6 µM |  |
| Cc1cccc(C)c1NC(=S)N/N=C/c1ccccc1C(=O)O |  | inactive: 2.12% |
| O=S(c1ccccc1)C(c1ccccc1)c1ccccc1 (configuration not stated) | inconclusive [inhibitor, single point] |  |
| CCn1c(CNC(=O)c2ccco2)nnc1SCC(=O)c1ccc(OC)cc1 | inconclusive [inhibitor, single point] |  |
